From the supplement of paper PMC11876631
Where a chain is given by its changes, count along the chain named. Names and notes keep the numbering of the source. ± gives the standard deviation of the averaged measurements. Laboratory Escherichia coli strains with one amino-acid change in an essential protein, pooled on minimal glucose agar with carbenicillin or gentamicin at twice the control MIC (plus kanamycin and chloramphenicol for the plasmids), 48 h. Fold change of barcode share against drug-free plates; higher = less susceptible. Active = above 20 in both replicates (the paper's putatively resistant). '<' = one read or none on drug, '>' = one read or none on a drug-free plate. Shares are relative, so most strains fall below 1 when a few take over. Listed are strains with at least 15 reads on both drug-free plates, and hits; most hits rest on fewer reference reads. Replicate rank correlation about 0.5. Edits are read from barcodes.

B1: hemG L25A (protein)
chain: MKTLILFSTRDGQTREIASYLASEAKELGIQADVANVHRIEEPQWENYDRVVIGASIRYGHYHSAFQEFVKKHATRLNSMPSAFYSVNLVARKPEKRTPQTNSYARKFLMNSQWRPDRCAVIAGALRYPRYRWYDRFMIKLIMKMSGGETDTRKEVVYTDWEQVANFAREIAHLTDKPTLK
B2: hemG V52A (protein)
chain: B1 chain with A25L, V52A
B3: hemG L25W (protein)
chain: B1 chain with A25W
B4: hemG L25Q (protein)
chain: B1 chain with A25Q
B5: hemL V206A (protein)
chain: MSKSENLYSAARELIPGGVNSPVRAFTGVGGTPLFIEKADGAYLYDVDGKAYIDYVGSWGPMVLGHNHPAIRNAVIEAAERGLSFGAPTEMEVKMAQLVTELVPTMDMVRMVNSGTEATMSAIRLARGFTGRDKIIKFEGCYHGHADCLLVKAGSGALTLGQPNSPGVPADFAKYTLTCTYNDLASVRAAFEQYPQEIACIIVEPAAGNMNCVPPLPEFLPGLRALCDEFGALLIIDEVMTGFRVALAGAQDYYGVVPDLTCLGKIIGGGMPVGAFGGRRDVMDALAPTGPVYQAGTLSGNPIAMAAGFACLNEVAQPGVHETLDELTTRLAEGLLEAAEEAGIPLVVNHVGGMFGIFFTDAESVTCYQDVMACDVERFKRFFHMMLDEGVYLAPSAFEAGFMSVAHSMEDINNTIDAARRVFAKL
B6: hemL V99Q (protein)
chain: B5 chain with V99Q, A206V
B7: hemL V99A (protein)
chain: B5 chain with V99A, A206V
B8: hemL V206Q (protein)
chain: B5 chain with A206Q
B9: hemL I201Q (protein)
chain: B5 chain with I201Q, A206V
B10: hemL V99W (protein)
chain: B5 chain with V99W, A206V
B11: hemL I201A (protein)
chain: B5 chain with I201A, A206V
B12: hemD L212D (protein)
chain: MSILVTRPSPAGEELVSRLRTLGQVAWHFPLIEFSPGQQLPQLADQLAALGESDLLFALSQHAVAFAQSQLHQQDRKWPRLPDYFAIGRTTALALHTVSGQKILYPQDREISEVLLQLPELQNIAGKRALILRGNGGRELIGDTLTARGAEVTFCECYQRCAIHYDGAEEAMRWQAREVTMVVVTSGEMLQQLWSLIPQWYREHWLLHCRLDVVSERLAKLARELGWQDIKVADNADNDALLRALQ
B13: hemD L212P (protein)
chain: B12 chain with D212P
B14: argG L249W (protein)
chain: MTTILKHLPVGQRIGIAFSGGLDTSAALLWMRQKGAVPYAYTANLGQPDEEDYDAIPRRAMEYGAENARLIDCRKQLVAEGIAAIQCGAFHNTTGGLTYFNTTPLGRAVTGTMLVAAMKEDGVNIWGDGSTYKGNDIERFYRYGLLTNAELQIYKPWLDTDFIDELGGRHEMSEFMIACGFDYKMSVEKAYSTDSNMLGATHEAKDLEYLNSSVKIVNPIMGVKFWDESVKIPAEEVTVRFEQGHPVAWNGKTFSDDVEMMLEANRIGGRHGLGMSDQIENRIIEAKSRGIYEAPGMALLHIAYERLLTGIHNEDTIEQYHAHGRQLGRLLYQGRWFDSQALMLRDSLQRWVASQITGEVTLELRRGNDYSILNTVSENLTYKPERLTMEKGDSVFSPDDRIGQLTMRNLDITDTREKLFGYAKTGLLSSSAASGVPQVENLENKGQ

molecular target: Escherichia coli (laboratory strain); experiment: barcode share on antibiotic plates over drug-free plates; higher = less susceptible; settings: antibiotic: carbenicillin; 2× MIC (3.1 µg/mL)
Description: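 A pool of E. coli strains, each edited to carry one amino-acid change in an essential protein, was grown for 48 h on minimal glucose agar with or without antibiotic; strain barcodes were sequenced; mean of two replicates.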

Protein	fold change of barcode share
B1	2.91 ± 3.8
B2	0.628 ± 0.085
B3	0.3285 ± 0.0027
B4	0.319 ± 0.061
B5	0.302 ± 0.12
B6	0.299 ± 0.026
B7	0.294 ± 0.1
B8	0.458 ± 0.23
B9	0.336 ± 0.0026
B10	0.337 ± 0.12
B11	0.377 ± 0.067
B12	8.27 ± 4.7
B13	> 42.7 [active]
B14	0.357 ± 0.065

same assay, conditions: antibiotic: gentamicin; 2× MIC (MIC 0.45 µg/mL)

Protein	fold change of barcode share
B1	0.0113 ± 0.01
B2	< 0.00133
B3	0.0151 ± 0.0099
B4	0.0041 ± 0.0013
B5	0.00532 ± 0.0041
B6	0.00832 ± 0.0052
B7	< 0.0079
B8	3.91 ± 2.5
B9	0.010628 ± 1.7e-06
B10	< 0.00927
B11	0.131 ± 0.18
B12	> 43.1 [active]
